Measurements published in PubChem BioAssay AID1346428 (National Center for Advancing Translational Sciences (NCATS), 2018).
Among all 48,000 compounds or so, about 1,200 (2.5%) were called active. Inconclusive results (about 2%) are left out.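 Rule for the calls: active = activation of at least 60% and not above a set upper limit (about 1 call in 100 departs from these limits); inconclusive = activation of 40% to 60%, or above that upper limit; inactive = activation under 40%.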 The list shows a part of the results.

These molecules were tested against Probable G-protein coupled receptor 32 (Homo sapiens) (UniProt O75388) (assay: qHTS for Agonists of Human Resolvin D1 Receptor DRV1). Conditions: CHO-K1 GPR32 beta-arrestin PathHunter luminescence, 90 min; at 76.9 µM; stronger effect = higher value; zero percent set by DMSO-only wells.
Chain of UniProt O75388 (O75388 whole entry, looked up): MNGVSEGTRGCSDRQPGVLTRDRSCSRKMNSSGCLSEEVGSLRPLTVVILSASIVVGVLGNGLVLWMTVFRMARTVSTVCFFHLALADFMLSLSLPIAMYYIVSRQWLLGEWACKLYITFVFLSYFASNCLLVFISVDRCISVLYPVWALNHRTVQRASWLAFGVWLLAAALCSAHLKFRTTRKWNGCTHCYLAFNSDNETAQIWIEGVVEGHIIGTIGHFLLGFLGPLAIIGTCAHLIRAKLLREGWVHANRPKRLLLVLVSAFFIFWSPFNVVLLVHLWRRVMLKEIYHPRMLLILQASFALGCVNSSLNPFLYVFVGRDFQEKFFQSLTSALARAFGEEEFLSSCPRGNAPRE
Method in brief: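 Beta-arrestin recruitment read-out: luminescence from complemented beta-Gal in CHO-K1 GPR32 PathHunter cells, measured 1 h after detection reagent at ambient temperature following 90 min compound exposure at 37 °C; DMSO served as basal (EC0) control.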

activation, inactive:
Cc1cc(C)c(NC(=O)C2CCN(c3nc4ccccc4[nH]3)CC2)c(C)c1 -9.97%
CCOc1ccc(-n2c(Cc3ccccc3)nnc2SCc2nc(-c3ccccc3OC)no2)cc1 -33.3%
CN1CCN(C(CNC(=O)c2cccc(F)c2)c2ccc3c(c2)OCO3)CC1 (configuration not stated) 7.35%
CCOc1ccc(CCNC(=O)CCc2c(C)nc3c4c(C)cc(C)nc4nn3c2C)cc1 -17.7%
COC(=O)c1sccc1S(=O)(=O)N1CCN(c2ccccc2)CC1 -6.89%
COc1ccccc1C1C=C(c2ccc(F)cc2)Nc2nc(-c3ccc(Cl)cc3)nn21 (configuration not stated) -17.1%
CCN(CC)S(=O)(=O)c1ccc2c(c1)N(CC(=O)NCCCN1CCN(c3ccccc3F)CC1)C(=O)CO2 -16.6%
COc1cccc(NC(=O)NCc2ccc3c(c2)CCN3C(=O)c2ccccc2)c1 15.9%
Cc1cccc(C(=O)Nc2sc3c(c2C(=O)NCc2ccco2)CCCC3)c1 -1.32%
Cc1ccc2[nH]c(=O)c3cc(C(=O)N4CCN(c5ccccc5)CC4)sc3c2c1 -34.9%
CC(C)c1ccc(C2N3CC4(C)CN2CC(c2ccccc2)(C3)C4=O)cc1 (configuration not stated) 3.86%
CCc1ccc(NC(=O)c2cc(C(C)=O)n3ccccc23)cc1 -19.3%
CCc1nn(-c2ccccc2)c2nc(-c3ccccc3OC)c3cc(OC)c(OC)cc3c12 -5.26%
CCOC(=O)c1scc(-c2ccccc2)c1S(=O)(=O)Nc1ccccc1F -64.2%
Clc1cccc(N2CCN(c3ncnc4c3nc3n4CCCCC3)CC2)c1 32.4%
CCCc1nn2c(=O)cc(COC(=O)c3cccc(NC(=O)COc4ccc(F)cc4)c3)nc2s1 -18.7%
CCCCN1C(=O)c2[nH]nc(-c3ccccc3O)c2C1c1cccc(OCc2ccccc2)c1 (configuration not stated) 20.7%
O=C(Cn1c(=O)oc2cc(S(=O)(=O)N3CCCCC3)ccc21)Nc1cccc(Cl)c1 35.6%
O=C(O)c1cc(NC2(c3ccccc3)C(=O)c3ccccc3C2=O)ccc1Cl -17.8%
Cc1cc(C)c(Cn2c3ccccc3c3cnn(CC(=O)NC4CCC(C)CC4)c(=O)c32)c(C)c1 (configuration not stated) -14.9%
CC1(C)CCC(NC(=O)[C@@H](N)CCC(=O)O)CC1 -4.86%
Cc1nc(-c2ccc(Cl)cc2)sc1CCNC(=O)C(=O)Nc1ccc(F)cc1F 8.19%
Cc1ccccc1NC(=O)c1ccc(F)c(S(=O)(=O)N(C)Cc2ccccc2)c1 -10.1%
COc1ccc(NC(=O)CSc2cn(CC(=O)N3CCOCC3)c3ccccc23)cc1OC -1.74%
COc1cccc(N2CCN(C(=O)c3ccc4c(=O)n(CCc5ccccc5)c(=O)[nH]c4c3)CC2)c1 20.2%
Cc1c(CC(=O)NCCc2ccccc2F)c(=O)oc2c(C)c3occ(C(C)(C)C)c3cc12 -22.5%
CC(C)COC(=O)/C(C#N)=C\c1ccc(-c2ccccc2Cl)o1 -4.22%
COc1ccccc1CNS(=O)(=O)c1cc(C(=O)Nc2cccc(C(F)(F)F)c2)ccc1F 15.4%
Cc1ccc(Cl)c2c1N[C@@H](c1ccc(C(=O)O)cc1)[C@H]1CC=C[C@@H]21 -14.4%
Cc1cccc(OCC(=O)Nc2c(C)ccc3nsnc23)c1C 36.4%
CCc1ccc(S(=O)(=O)c2nnn3c2nc(N2CCC(C)CC2)c2cc(Cl)ccc23)cc1 -22.4%
COc1ccc(-c2cc(C(=O)NCc3cc(OC)c(OC)c(OC)c3)[nH]n2)cc1 -1.24%
O=C(Nc1ccccc1)C(Cc1ccccc1)N1Cc2ccccc2C1=O (configuration not stated) -8.69%
CCOc1ccc(-c2nc(CSCC(=O)N3CCN(c4cccc(C(F)(F)F)c4)CC3)c(C)o2)cc1 -25.5%
O=C(CSc1ncc(S(=O)(=O)c2ccc(Br)cc2)c(=O)[nH]1)NCc1ccc(Cl)cc1 1.33%
Cc1ccc(C)c(NC(=O)CCN2C(=O)c3ccccc3Sc3ncccc32)c1 -15.1%
COc1ccc(C2=NS(=O)(=O)N(C)C(C(=O)Nc3cc(C)ccc3O)=C2)cc1OC 2.54%
COc1cccc(N2CCN(S(=O)(=O)c3cc(Br)cc4c3N(C(=O)C3CC3)CC4)CC2)c1 20.2%
Cc1nc(N2C(=O)c3oc4ccccc4c(=O)c3C2c2ccccc2F)sc1C (configuration not stated) -1.38%
CN1CCN(C(CNC(=O)C(=O)Nc2ccccc2)c2ccc3c(c2)OCO3)CC1 (configuration not stated) 4.23%
Cc1cccc(N2C(=O)CSC23C(=O)N(Cc2cccc(F)c2)c2ccccc23)c1 (configuration not stated) -20.6%
Cc1ccc(C)c(CSc2nc3ncccc3[nH]2)c1 -0.461%
Cc1cccc(-c2noc(CN(C(=O)COc3ccc(C(C)C)cc3)C(C)C)n2)c1 5.27%
CCOC(=O)c1c(C)n(-c2ccccc2)c2ccc(OC(=O)c3ccccc3)cc12 -32.8%
Cc1ccc2c(c1)-c1nc(-c3ccc(Cl)cc3)cc(-c3coc4ccccc4c3=O)c1CO2 -6.95%
O=C(Nc1ccc2oc(-c3ccccc3F)nc2c1)c1ccccc1Cl 12.8%
Cc1cccc(CSc2ncc(CO)n2Cc2ccc(F)cc2)c1 12.6%
COc1ccc(NC(=O)CSc2ncc3c(n2)-c2cc(Cl)ccc2N(Cc2ccccc2F)S3(=O)=O)cc1 -10.7%
CCCSc1ncc(Cl)c(C(=O)Nc2ccc(S(=O)(=O)Nc3ncccn3)cc2)n1 -9.78%
Cc1cc(C)c2c(=O)cc(C(=O)Nc3sc4c(c3C(=O)NCc3ccccc3)CCCC4)oc2c1 -15.2%
Fc1ccc(-n2ncc3c(NCCCN4CCOCC4)ncnc32)cc1 9.18%
COC(=O)c1cc(S(=O)(=O)NCC2CCN(Cc3ccc(F)cc3)CC2)cn1C -11.1%
O=C(Nc1ccc2nc(SCC(=O)N3CCCc4ccccc43)sc2c1)c1cccc(F)c1 -16.1%
COc1cc(-c2nnc(SCCOc3ccc(Cl)cc3C)o2)cc(OC)c1OC 1.22%
CCOC(=O)c1c(NC(=O)CSc2cn(CCNC(=O)c3ccccc3F)c3ccccc23)sc2c1CCC2 -4.47%
Cc1ccc2c(c1)N(CCC(=O)NCc1ccc(F)cc1)C(=O)CO2 -12.1%
COc1cccc(CNC(=O)c2ccc(CSc3nc4ccncc4n3Cc3cccc(C)c3)cc2)c1 -2.47%
Cc1ccc(Cl)cc1N1CCN(S(=O)(=O)c2ccc3[nH]c4c(c3c2)CCCCC4)CC1 -7.46%
COc1cc(NC(=O)CCc2c(C)nn(-c3ccc4nncn4n3)c2C)cc(OC)c1OC -7.23%
CCOCCc1nn2c(=O)cc(COC(=O)CNC(=O)c3ccc(C(C)(C)C)cc3)nc2s1 7.73%
Oc1c(C(c2ccccc2)N2CCN(c3cccc(Cl)c3)CC2)sc2nc(-c3ccco3)nn12 (configuration not stated) -8.38%
Cc1ccc(CSc2ncc(Cl)c(C(=O)Nc3nc4ccc(C)cc4s3)n2)cc1 -3.21%
O=C(NCc1ccc(F)cc1)c1ccc(CS(=O)Cc2ccc(Cl)cc2)o1 (configuration not stated) -4.14%
Cc1ccc(NC(=O)c2cc3nc(-c4ccc5c(c4)OCO5)cc(C(F)(F)F)n3n2)cc1Cl -7.94%
O=c1c(=O)n(-c2ccccc2)ccn1Cc1cccc(C(F)(F)F)c1 -2.45%
O=C1COc2ccc(-c3cc(-c4ccc(F)cc4)c4c(n3)-c3cc(Cl)ccc3OC4)cc2N1 -0.314%
COc1ccccc1CNS(=O)(=O)c1cc(Br)cc2c1N(C(C)=O)C(C)C2 (configuration not stated) 1.03%
Cc1ccc(N2CC(c3nnc(Cc4ccc(F)cc4)o3)CC2=O)cc1 (configuration not stated) -3.81%
COc1cc(Cl)c(NC(=O)c2cc(CN3CCCC3)on2)c(OC)c1 3.92%
Cc1c(C(=O)Nc2ccccc2Cl)sc2ncnc(N(C)C3CCCCC3)c12 -0.0155%
CCc1ccc(CNC(=O)C2CCCN(c3nnc(C)c4c(C)n(-c5ccc(OC)cc5)nc34)C2)cc1 (configuration not stated) 2.97%
Cc1oc(-c2ccccc2F)nc1CSCC(=O)NCc1ccccc1 -21.2%
Cc1cccc(C)c1NC(=O)CSc1ncc2c(n1)-c1ccc(Cl)cc1N(Cc1ccccc1)S2(=O)=O -13.7%
CC(CCc1ccccc1)NC(=O)Cn1c(=O)nc(-c2ccccc2F)c2cc(Cl)ccc21 (configuration not stated) -10.4%
COc1ccc(Cn2ccnc2SCC(=O)NC2CCCC2)cc1 -12%
CC(C)C[C@@H]1[C@H](c2ccccc2)OC(=O)N1CCCN1CCCCCC1 -5.63%
CC(C)c1ccc(NC(=O)C2CCCN(S(=O)(=O)c3cccc4nsnc34)C2)cc1 (configuration not stated) -12.4%
COc1ccc2c(c1)CC(C(=O)Nc1cccc(C)c1C)CO2 (configuration not stated) -9.92%
COc1cccc(-n2ccnc2SCC(=O)Nc2ccc(Cl)c(Cl)c2)c1 -20.6%
C/C(=C(\CCO)SS/C(CCO)=C(\C)N(C=O)Cc1cnc(C)nc1N)N(C=O)Cc1cnc(C)nc1N 35.1%
COC(=O)c1ccc(NS(=O)(=O)c2c(C)nc3sccn3c2=O)cc1 -6.14%
O=C(CSc1nccn1-c1ccc(Cl)cc1)Nc1cccc2ccccc12 -12.3%
